# Test results published in publication PMC6451091.
# The list shows a part of the results. For part of these data: At the low end of the ranking, values are background and their order means little. For part of these data: The protein was read in a cell extract, so binding may be indirect.
# Legend:
# Conditions in all cases: 20 mM HEPES pH 7.9, 100 mM NaCl, 1 mM DTT, 0.2 mg/mL BSA, 0.02% Triton X-100, 2% milk, 0.4 mg/mL salmon testes DNA; 1 h; temperature not stated; high values mean tight binding; double strand, one strand shown; sequences stand for … in GCCTAGCAC…GTGCTAGGTCTTGATTCGCTTGACGCTGCTG
# [1] = biological target: PU.1 (IVT) (UniProt P17947); experiment: protein-binding microarray (PBM)
# [2] = biological target: PU.1 (endogenous, THP-1 nuclear extract) (UniProt P17947); experiment: nuclear extract protein-binding microarray (nextPBM)
# [3] = biological target: T1, FLI1 (endogenous, THP-1 nuclear extract) (UniProt Q01543); experiment: as above
# T1 sequence: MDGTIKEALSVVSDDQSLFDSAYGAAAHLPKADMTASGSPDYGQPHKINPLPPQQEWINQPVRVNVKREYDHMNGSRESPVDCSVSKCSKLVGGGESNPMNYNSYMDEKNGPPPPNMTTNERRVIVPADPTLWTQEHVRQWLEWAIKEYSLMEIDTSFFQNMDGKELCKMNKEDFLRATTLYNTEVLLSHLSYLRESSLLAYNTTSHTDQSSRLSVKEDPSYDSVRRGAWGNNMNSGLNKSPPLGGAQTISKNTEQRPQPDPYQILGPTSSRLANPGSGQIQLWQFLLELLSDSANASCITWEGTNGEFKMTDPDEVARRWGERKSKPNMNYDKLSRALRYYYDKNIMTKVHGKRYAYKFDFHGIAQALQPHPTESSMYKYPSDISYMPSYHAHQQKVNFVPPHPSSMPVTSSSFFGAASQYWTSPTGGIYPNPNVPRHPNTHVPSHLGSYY
# [4] = system: PU.1 (endogenous, THP-1 nuclear extract) + IRF8 (endogenous, THP-1 nuclear extract); experiment: as above
Sequence,binding signal [1] [z-score],binding signal [2] [z-score],binding signal [3] [z-score],binding signal [4] [z-score]
CTTCAGAATCCTCTTTTATG,0.78,0.302,0.265,0.438
ACTGTTGAACATGAGCAATT,0.0743,-0.219,-0.67,-1.26
CAGAGAAGATAACCGCCAGT,-0.444,-0.158,0.182,-0.0534
TTATTGTTTGAGATTTTATC,0.0357,-0.505,-0.725,-0.27
TCTCACTGAGAAAGTTGATA,-0.0484,-0.188,-0.0155,-0.348
CTGTGTTTTGAAATCATATT,0.346,-0.562,0.218,-0.0514
AATCTTCAGTGTTGGAGCCA,-0.0894,-0.376,-1.03,-1.02
CCTGACTTTGTGGATGCTGT,-0.312,-0.299,0.0992,-0.43
ATGTGATTTCCTCCTCTAAG,1.71,1.02,1.93,-1.25
ATTAGGAAGTGCTTTTGGGA,2.18,1.97,1.64,-1.69
TACCCTTTAAAAATAGTTCA,0.827,0.806,-0.0116,0.0452
AGAGAGTATCTCACCCTGTT,-0.428,-0.292,-0.473,0.532
GAAGCCCGCCAGGGTTACCA,-0.642,-0.251,-1.4,0.761
GGTCGGGGTTGGACAAGTGA,-0.662,-0.101,-0.0608,0.66
CTGTATTTTCTTAGCTACTA,-0.159,-0.406,-0.3,-0.171
TTTAGGACAAAGGCAGCCCT,-0.0628,-0.444,-0.655,-0.503
CATAAGAATGTGAACGAGGC,0.166,-0.223,-0.42,-0.371
CGCAAGGCTGCCTGAAACTC,-0.36,-0.594,-0.468,1.98
CAGTGACTCACGCCCATAAT,-0.287,-0.191,-0.564,0.608
CCTCAGAGTGCTATACCTTT,-0.565,-0.476,-0.54,-1.56
TTTCATGGTGTCATGTGAAC,0.0216,-0.134,-0.647,1.59
TTGCCGTGGCGACTGCGCGC,-0.873,-0.223,-0.213,0.506
TCTTGTAAAGCTTTTCCAAT,-0.135,-0.442,-0.048,0.719
AAGGGGAAGTGGGAAGAAAC,3.92,4.09,2.01,0.199
TTATCAGAAGCCAGTGTGGT,-0.586,-0.483,-0.12,0.961
CTTGAGTGGCGTCTTAACCT,-0.359,-0.211,-0.534,0.628

Sequence,binding signal [1] [z-score],binding signal [2] [z-score],binding signal [3] [z-score],binding signal [4] [z-score]
CTCCAAAGAGCTCTGGGGGA,-0.701,-0.526,-0.202,-0.621
CTGCAGCCGTCTGCTGTATC,-0.933,-0.143,-0.6,1.25
GCTATACTAAAAAGACATAT,0.0241,-0.775,0.111,0.476
GCTTTAACTGCCTGAAACTG,-0.499,-0.721,-0.513,1.16
AGGGTGTCTTAGTTCATTTG,0.521,-0.317,-0.365,1.11
AGTCAGCAAACACCCACCAC,-0.75,-0.435,-1.04,0.293
GCCACGTGGTGTATTATTCC,-0.143,-0.519,0.116,0.676
GGAGCATGGTACAAGAGACT,-0.821,-0.43,-0.676,0.00634
GCCTCCGTTCGGCCCCGCCC,-0.709,-0.242,0.406,-1.3
ACGCTGGATCAGGTGACGCA,-0.628,-0.519,-0.339,-0.824
GCACATAGCCTGGCATTTAG,-0.573,-0.275,-0.356,-0.81
TCTCCCAAATTTTCCGGCAG,-0.214,-0.273,1.81,-0.133
GAAGAAGCTGCGTGAAAGAG,-0.117,-0.252,-0.373,-1.5
AGACCAGCCTGGCCAACATG,-0.401,-0.187,-0.911,0.41
GGGAACCAGAAAGTGAAAGA,-0.311,0.00858,0.33,2.39
TGCTTAGAAAGGACCAGATT,-0.552,-0.12,-1.08,-0.0479
CGTGTTTGCGTCCTTGCACG,-0.742,-0.284,-0.922,-0.977
GTCCTTCAGGATATATTTAA,-0.32,-0.0429,1.19,-0.518
AAGCACAGGGCCAGCCCTAT,-0.486,-0.193,-1.45,0.333
CAGTTTTTGACATCTTATCA,-0.0371,-0.398,-0.163,-0.347
GAAGGGAAAGTTCTACTGCC,-0.378,-0.438,-0.187,-1.95
CTGTCTTTGACCTTTGACAG,-0.136,-0.558,-0.255,-0.856
GGCCAGTCACTGTGTAAGAT,-0.482,-0.542,-0.017,0.643
TTTAATTATATTTTTTAAAT,-0.343,-0.141,-0.206,0.774
GATACCTTGCCAATATTGGA,-0.543,-0.326,-0.14,-0.639
